About 14,000 (4.5%) of roughly 310,000 compounds showed an effect of 50% or more. The effect is printed as a negative number. Some of the results follow.
Target: human ether-à-go-go-related gene (hERG) potassium channel (human, UniProt Q12809)
Experiment: primary screen, population patch clamp on CHO cells stably expressing hERG
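Further: peak tail current of the secondary pulse compared with the same well before compound.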

Chain of human ether-à-go-go-related gene (hERG) potassium channel (Q12809 whole entry, looked up): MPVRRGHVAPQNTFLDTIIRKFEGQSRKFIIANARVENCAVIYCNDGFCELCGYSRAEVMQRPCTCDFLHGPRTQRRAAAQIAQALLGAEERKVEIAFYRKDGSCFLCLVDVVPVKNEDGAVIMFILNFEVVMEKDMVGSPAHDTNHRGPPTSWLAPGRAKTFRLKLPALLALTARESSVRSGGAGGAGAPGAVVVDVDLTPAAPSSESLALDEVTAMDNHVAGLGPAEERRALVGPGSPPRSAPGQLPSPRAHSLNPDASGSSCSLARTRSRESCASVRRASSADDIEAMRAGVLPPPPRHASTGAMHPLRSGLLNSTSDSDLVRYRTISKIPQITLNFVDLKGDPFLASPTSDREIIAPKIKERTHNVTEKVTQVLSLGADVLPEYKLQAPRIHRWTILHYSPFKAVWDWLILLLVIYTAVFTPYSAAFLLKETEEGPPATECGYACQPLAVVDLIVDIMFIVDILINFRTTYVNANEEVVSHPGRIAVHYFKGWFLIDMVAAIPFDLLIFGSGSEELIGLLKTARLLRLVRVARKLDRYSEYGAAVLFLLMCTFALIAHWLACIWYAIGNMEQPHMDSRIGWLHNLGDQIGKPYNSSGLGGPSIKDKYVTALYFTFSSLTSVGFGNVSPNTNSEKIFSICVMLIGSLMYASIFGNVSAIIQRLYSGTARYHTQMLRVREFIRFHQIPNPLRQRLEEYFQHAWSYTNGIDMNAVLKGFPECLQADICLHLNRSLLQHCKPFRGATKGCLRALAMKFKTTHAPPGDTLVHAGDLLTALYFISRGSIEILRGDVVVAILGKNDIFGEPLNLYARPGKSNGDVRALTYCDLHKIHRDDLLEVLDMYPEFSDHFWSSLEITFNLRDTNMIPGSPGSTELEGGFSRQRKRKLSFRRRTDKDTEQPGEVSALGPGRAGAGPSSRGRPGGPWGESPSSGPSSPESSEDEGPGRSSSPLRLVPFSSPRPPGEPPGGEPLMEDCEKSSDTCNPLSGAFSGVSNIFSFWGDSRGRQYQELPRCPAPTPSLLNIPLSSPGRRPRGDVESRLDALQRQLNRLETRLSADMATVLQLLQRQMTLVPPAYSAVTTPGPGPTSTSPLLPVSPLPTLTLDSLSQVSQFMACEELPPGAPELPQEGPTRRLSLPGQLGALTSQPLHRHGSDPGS

| SMILES | hERG current change (%, negative = inhibition) at 10uM [%] |
| --- | --- |
| O=C(O)/C(=C/c1ccco1)NC(=O)c1ccc(Br)o1 | 11.9 |
| COc1cccc(Nc2ncccc2C(=O)Nc2ccccc2)c1 | -15.7 |
| O=C(CSc1nnnn1C1CC2C=CC1C2)Nc1ccc(C(=O)O)cc1 (stereo not drawn) | -6.04 |
| O=C(/C=C/c1ccccc1Cl)Nc1ccc2c(c1)C(=O)NC2=O | 17.7 |
| CC1CC(C)(C)NC(=S)N1CCCC(=O)N1CCN(c2ccccc2F)CC1 (stereo not drawn) | -4.98 |
| COc1ccc(CNC(=O)CN(c2cccc(OC)c2)S(C)(=O)=O)cc1 | 2.47 |
| Cc1ccc(NC(=O)C2CCN(C(=O)NC3CCCCC3)CC2)cc1Cl | 17 |
| Cc1cc(=O)[nH]c(SCC(=O)Nc2nnc(CC(C)C)s2)n1 | 10.9 |
| Cc1ccnc(NC(=O)/C=C/c2cccs2)c1 | 1.27 |
| Cc1onc(-c2ccccc2Cl)c1C(=O)OCC(=O)N1CCCc2ccccc21 | 7.75 |
| CCn1cc(C(C)NC(=O)Nc2ccc3c(c2)OCO3)c(C)n1 (stereo not drawn) | 61.5 |
| CCC(C)(C)NC(=O)C(c1cccc(OC)c1OC)N(CCC(C)C)C(=O)CCC(=O)Nc1cc(C)on1 (stereo not drawn) | 11.6 |
| COc1ccc(NC(=O)c2c[nH]c(=O)n(-c3ccc(C)c(C)c3)c2=O)cc1OC | 9.17 |
| CCCNC(C)C(=O)Nc1c(C)csc1C(=O)OC.Cl (stereo not drawn) | -4.01 |
| CC1=Nn2c(nc3sc4c(c3c2=O)CCCC4)SC1 | -24.5 |
| Cc1ccc(N2C(=O)CC(Cc3cc(C)cc(C)c3)C2=O)cc1 (stereo not drawn) | 6.47 |
| CCN(CC)S(=O)(=O)C1CCS(=O)(=O)C1 (stereo not drawn) | 8.51 |
| CC1(C)Cc2nc(-c3ccccc3)nc(NNC(=O)c3ccco3)c2CO1 | 18.2 |
| CC(=O)N1CCc2cc(NC(=O)c3ccc(C)cc3)ccc21 | 13.1 |
| CCN(CC)S(=O)(=O)c1ccc(Nc2cc(C)nc3ncnn23)cc1 | -26.9 |
| CCCCN(C(=O)COC(=O)CSc1cc(C)c2ccccc2n1)c1c(N)n(CCC)c(=O)[nH]c1=O | 3.06 |
| CCn1c(CNc2ccccc2Cl)nnc1SCC(=O)OC1CCCCC1 | -21 |
| CC(=O)Nc1ccc(S(=O)(=O)NCCC(=O)N2CCCCC2)cc1 | 16.1 |

| SMILES | hERG current change (%, negative = inhibition) at 10uM [%] |
| --- | --- |
| CC(OC(=O)c1ccc(CN2CCCC2=O)cc1)C(=O)Nc1ccc(Cl)cc1 (stereo not drawn) | -8.49 |
| CCCCc1nc2cc(Cl)ccc2o1 | 10.2 |
| C=C[C@]1(C)C[C@H]1[C@H](NP(=O)(c1ccccc1)c1ccccc1)c1ccccc1 | 27.9 |
| CN(C)CCN(Cc1ccccc1)c1ccccn1.Cl | -48.6 |
| O=C(c1ccc(CSc2ccccc2)cc1)N1CCCCCC1 | -8.84 |
| O=c1c2ccccc2c(-c2ccccc2)nn1Cc1c(Cl)cccc1Cl | -0.451 |
| O=C(O)CSc1nnc(-c2cccs2)n1-c1ccc(Cl)cc1 | -6.94 |
| CC(=O)Nc1ccc(-n2cnnn2)cc1 | 8.43 |
| CN(C)C(=O)N1CCCC(C(=O)NCc2ccc(F)cc2Cl)C1 (stereo not drawn) | 7.68 |
| Cc1csc(SCC(=O)c2c(N)n(C)c(=O)n(C)c2=O)n1 | 11.2 |
| Nc1nnc(SCC(=O)NCCNC(=O)CSc2nnc(N)s2)s1 | 11.3 |
| Cc1cc(C)cc(NC(=O)COC(=O)[C@@H](NC(=O)c2ccco2)C(C)C)c1 | -17.1 |
| C/C(=N\NC(=O)c1cccc(F)c1)c1ccc(Br)s1 | 26.4 |
| CN(CC(=O)Nc1ccccc1)CC(=O)Nc1ccc(F)cc1 | 24.1 |
| CCC(=O)Nc1c2c(nn1-c1cccc(Cl)c1)CSC2 | -13.6 |
| CC(OC(=O)Cn1[nH]c(=O)c2ccccc2c1=O)C(=O)c1ccccc1 (stereo not drawn) | 13.8 |
| CSc1ccccc1OCc1cc(C(=O)N2CCC(c3ccncc3)CC2)no1 | -58.5 |
| Fc1ccc(OCc2nc(-c3ccncc3)n[nH]2)cc1 | 5.74 |
| Cc1ccc(NCC(=O)N/N=C/c2cc3ccccc3nc2Cl)cc1 | -6.21 |
| CN1C(=O)N(C)C2(c3ccccc3)NNC(N)=NC12c1ccccc1.Cl (stereo not drawn) | 2.59 |
| O=C(Nc1nc(-c2ccccn2)cs1)C12CC3CC(CC(O)(C3)C1)C2 | 16.7 |
| Cc1cccc(C(CC(=O)O)n2cccc2)c1 (stereo not drawn) | 8.11 |

Source: publication PMC4336329 (PLoS ONE, 2015)
